Laboratory results published in the RNAGym collection of RNA variant scans (doi:10.7554/elife.90254).
The source gives no read counts; variants with many changes may rest on few reads.

B1: OR4K15 (parent)
chain: GUUAACGGUCAUAGGCCAUGGAAACUAGGAGCACCAUUUCGCUGCCAGUGAAGAAAUGAACAAAGAAAAUCUGGGCCAGGCAGGCAUCAAAAGAAAUAGUCUUGCGCUCAACCAGAAAGUCUGUAAUCAUUUUAAGGGUA

Variants of: B1
Assay: self-cleavage, relative activity (ratio to wild type); higher = more cleavage; in vitro, sequencing; the parent is a self-cleaving ribozyme

Variant	self-cleavage
A30G A78G A86G A91G	0.02
A62C A89G A90G	1.24
A91G A92G U108C	0.01
A33G U43G A68G A69G A82G	0.24
U38C U39A A126G A129G	0.54
U9C A62G A116G	0.69
G7U A18G A51U A96G U124G	0.61
A33G U43A U108C U130C U131C	0
A24G U38C A68G	0.98
U37C G44A A110G	0.11
U39A A62G A92G A98G	0.63
A13G A90G A110G	0.06
A63G A96G A118G A125G	0.14
A18G A64G U97C U122C A126G	2.06
U3C A51U A55G U72A A78G	0.06
A30U U39C A51G A68G	0.93
A98G U108C A117G	0.01
A5C U49C A60G	1.92
A36G A52G A69G U70C	0.71
A52G A114G U124C A140G	0.08
A22G A33C A60G A89G	1.08
A27G A36G U57A	1.02
A18G A69G A117G	1.36
U49C U108A A140G	0.02

Variant	self-cleavage
A13U A60G U122C U132C	0.32
U38C A55U U87A A96G U108C	0.01
U19C A51U A66G U122C	1.62
A18G U97A G136A	2.32
U2G U39C A54U U127C	1.05
A63C U131C U132C	1.24
A47U A91G A114U	0.04
A5G C32G A33G A86G A92G A125G	0.81
A4G A5G A24G A51G A60G A63G A82G A89U U108C	0
A5G A91G G99A U102C A111G	0.13
U2C A24C U38A G138A	1.49
A23G U38C U139C	0.98
A92G U120A U131C	0.83
A54G A56G A96G	1.68
U2A U37C G44A	1.99
U39C U70C A114U	0.01
A62G A95G A114G U131C	0.25
U12C A82U U102A U132C A135G	0.17
A5G A62G G84A U130C U132C	1.46
U70A A91G U122A A140C	0.16
A23G A82G A86G A110C	0.03
A51G U108A U131C	0
G14A U49C A52G A54G A78G A95C	0.06
U39C G41U G83A A90G	1.52

Variant	self-cleavage
A47U A95G A98U U102C A118G U122A U132C	2
U70C A90G A129G	0.12
A5G A55G A67G	0.49
A5G A27G A64G A94G U100C U122C	1.13
A11G A64C U127C	1.42
A63G U70C A117G	0.5
A11G A91G U127A	0.93
U2C U3G U9C U130C	1.09
G31A A47G A60G	0.43
A33C A62U A110U	2
U39A A55G A98G U124C	0.59
A60G A86U U87C	0.94
A60U A78U U122C	0.21
A24G U39A U49A A64C	0.61
A67G A90U U102C U103A A126G U139A	0.21
U87A G104U U127C	0.01
A23G A36C A54G	0.77
A55U U100C U108C	0.01
A23G A59U A64G U102C	1.57
U19C G50A C61U	1.9
A33U U49C U133C	1.89
U57A A95G A116U A126G	0.09
A63U A86G U108C U120C	0
U9C A47G U57A A94G U102C	0.84

Variant	self-cleavage
A30G A68G U87A A96G	2.17
A62U A91G A110G	0.13
A111G A116G U124C	0.01
U43C A54G A55G A91U	0.83
A23G U26C A69G	0.92
A23G U37C U38A U39C A82C A92G U139C	0.1
U70C G79U A91G	0.08
A47U A91U A95G	1.67
U19A A22G A30G G44A U127C	0.36
U38G C42A A91G A96G U97C U100C G106U	0.01
A60C A67G A134G	1.74
U12A G31U A47G A52G U57A G74U U100G	0.39
A52G A68G A69U U70C U102C	0.35
A13U A63G U72C U102A A111U	0.02
A11G A23C A69G A96G	0.51
A59U A95G A126G U127C	0.46
U3C U97C U102C A126G	0.76
U9C A11G A22C A52U	1.39
A30C A66G U139C	1.4
U9C A67C A116G	1.86
U2G A23G A52G G83A U120C	0.24
A11G G14A A62G A117G	1.81
U19C U49A G80A A91U U120C	0.1
U70G G74A A111G	0.02

Variant	self-cleavage
A63G A69G A94G	1.08
A110U A118G A135G G138A	0.49
U2C A59G A118U	0.28
U43C A59G A82G	0.32
U9C C35U A68G U131C U139A	0.95
A55G A82G A110G	0.09
A4G A18G A56G	2.2
A47G A56U U130C	0.33
U9C A95G A118G	1.3
A56G U87A U97A	1.97
A18G A55G A59G A89C	0.78
U2C A36G A64G	1.67
U39C A51G A64U U108C	0.02
A4G A92U A96U A129G	1.58
A5G A54G A135U	0.6
A11G A90G A114G	0.36
U9C A64G A92U	1.63
U39C A59G U108C U120G	0.01
U70C A90G A92G	0.67
A22G A30G U122C	1.02
A68U U70A U100C U103A U108C	0.01
A47G G48A G50A A59G U102C	0.82
A24G A33C A56G U102C	1.97
A63G U87C A111U G136U	0.04

Variant	self-cleavage
U3C A66G A95G A134G	2.03
A55G A69G A116G	0.24
A4G C85U A89U A98U	0.75
U37C A89U A126G	1.55
A22G A60G U131C	1.36
A23G U26A U127A	1.09
A52G U131C U133A	2.14
A5C U49C A66U U100C A114U A117U U132C	0.08
A13U C25U A140G	1.49
A52U A92G U97C U108C U122C	0
A24G U43C A56G C105U U131C	0.09
U9C A11U A66G A68G A91U A92U	1.06
A47U A63G A66G G73A A134G	0.13
A18G U57G A86G U100A	0.33
U37G A111G U124C	0.01
A4G A54C U132C	0.76
A47G A68G A91G	0.57
U3C A47G A90U U130C	0.44
U43A U87C A89G	1.51
G28U A52G A90G A110G	0.21
A55G A86G A111G	0.01
A47U A55G U70C	0.48
A24G A60G C112G	0.02
A18U A62G U120G U124C	0.98

Variant	self-cleavage
A62G U108C U131C	0.02
A13G A69G A94G	0.59
U19C A59G U72C U87C	0.5
U57C U102A U127C A140G	0.39
A5G A126G U130C	0.47
A5G G29C U38C A95U A96G	0.62
A30U A51G A96G	1.54
U43C A59G A69G U103C	0.72
U39A U122C U131C	0.33
A11U U37C A78U U108C	0
A60U A64C U97C	1.71
U12C A52G A118U A129U	0.61
G29A A30G A90G	1.09
A67U U87C A114U A116G	0.01
U49C A51U A91G U108C	0.01
U19A A36G A52G	0.29
U9C A68G A116U U133A	0.67
A11G A18G A64C U87C A98G A125G U127C U130C	0.25
A36U A66U A118G	1.17
U9C U39A U103C	0.52
U38A A96G U122A A126G	1.38
A55G A90G A118G U130C	0.16
U12C A13G U38C A60U	1.33
